The values that follow come from PubChem BioAssay (NCI).

“And” between values parts separate entries of the source, which are not always exact repeats. Equal entries are not always repeated.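 A five-concentration, 48-hour dose response in 96-well plates underlies each endpoint, interpolated linearly between surrounding concentrations. GI50: concentration for 50% inhibition of growth. TGI: total growth inhibition.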 The source made the active and inactive calls. Rule as the data show it: active = GI50 below about 0.43 µM; inactive = the rest.

The test system of the assay is NCI-H322M lung. The experiment in a line: NCI tumour cell line growth inhibition, 48 h.
`C=CCN1CN(C2CCCCC2)CSC1=S` returned a TGI of 40.3 µM. The same measure, in the same setting: as for `Nc1cccc(C2CCCc3c2[nH]c2ccccc32)c1` (stereo not given), the figure is 64.3 µM. Regarding `COc1ccc(NC(=O)Nc2ccccc2CNc2nc(Nc3ccc(OCCN4CCCC4)cc3)ncc2Cl)cc1`, the GI50 is 1.1 µM and the TGI came out at 2.96 µM.

With `[C-]#[O+].[C-]#[O+].[C-]#[O+].[C-]#[O+].[O-]C(c1ccccc1[PH+]1OC(C(F)(F)F)(C(F)(F)F)c2ccccc21)(C(F)(F)F)C(F)(F)F.[Re]` (stereo not given), the GI50 is 10.1 µM and the TGI came to 23.5 µM.

On to `COC(=O)CN1Cc2cc(C)cc(c2O)CN(CC(=O)OC)Cc2cc(C)cc(c2O)CN(CC(=O)OC)Cc2cc(C)cc(c2O)C1`, for which the TGI was above 100 µM.

For the molecule `Clc1ccc(CNc2ccc3nc(CCC4CCCCC4)[nH]c3c2)cc1`, the GI50 was 3.16 µM and the TGI was above 100 µM.

Molecule `COc1cc2c(cc1OC)C(C#N)(Cc1ccccc1)N(C(=O)c1ccccc1)C=C2` (stereo not given) had a TGI above 100 µM. In turn, `COc1cccc(CC2C(=O)N=C(NC(C)=O)N2C)c1OC(C)=O` (stereo not given) yielded a TGI above 100 µM. The same measure, in the same setting: with `COc1ccc2oc(=N)c(C(N)=O)cc2c1` the figure was above 100 µM. As for `O=c1cc(-c2ccc(O)c(O)c2-c2c(O)cc(O)c3c(=O)cc(-c4ccc(O)c(O)c4)oc23)oc2cc(O)cc(O)c12`, the outcome was inactive.

As for `CCOCc1cc(=O)c2cc3c(cc2o1)OC(C)(C)CC3`, the TGI is above 100 µM. On the same count and under the same terms, as for `N#Cc1c(N2CCCC2)ncn(-c2ccccc2)c1=S`, the figure is above 100 µM. Same read-out and setting: with `CCSc1cc(C(=O)OC)c2n(c1=O)CCCC2` the figure was above 100 µM. Regarding `COc1cc(C)cc2c1[nH]c1ccccc12`, the GI50 is 13 µM and the TGI was above 25 µM. In turn, `COc1ccc(-c2nc(N)n(C)c2SSc2c(-c3ccc(OC)cc3)nc(N)n2C)cc1` came in with a TGI of 29.5 µM. On the same count and under the same terms, as for `CCCc1cn2c(/C=N/N=C(N)N)c(-c3c(OC)ccc(OC)c3[N+](=O)[O-])nc2s1`, the figure is 31.9 µM. Take `Cc1ncc(C(=O)Nc2ccc(CN3CCN(C)CC3)c(C(F)(F)F)c2)cc1C#Cc1c(N)ncc2ccc(F)cc12`: the GI50 is 0.937 µM and the TGI was 3.08 µM. `COc1ccc2c(C)cc(C)nc2n1` had a TGI above 100 µM. Still for that read-out and setting: as for `Cc1cc(C)nc(Sc2c([N+](=O)[O-])ncn2C)n1`, the figure is above 100 µM. For `CCOc1ccccc1N1C(=O)C(=O)C(c2nc3ccccc3s2)C(=O)C1=O`, the TGI was above 100 µM. Turning to `CCN(CC)c1ccc(/C=N/NC(=O)c2ccc(S(C)(=O)=O)cc2)c(O)c1`, the GI50 is 0.256 µM and the TGI is above 100 µM. Consider `NC(N)=N/N=C\c1ccc(C2CCNCC2)cc1`, for which the TGI is above 100 µM. Same read-out and setting: with `CCOP(=O)(OCC)C1CC(C)OC1=O` (stereo not given) the figure was above 100 µM; with `Cc1ccc(NC(=O)c2cc(S(=O)(=O)Nc3n[nH]c(=O)n3-c3ccccc3)c(S)cc2Cl)cc1`, above 100 µM; with `COc1ccccc1-c1cc(=O)c2c(C)ccnc2[nH]1`, above 100 µM.

With `Nc1ccc(Cc2ccc(N=Cc3ccc(OCc4cccc(COc5ccc(C=Nc6ccc(Cc7ccc(N)cc7)cc6)cc5)n4)cc3)cc2)cc1`, the TGI was above 100 µM. Consider `O=C(Nc1ccc2[nH]c3c(-c4ccccc4)nccc3c2c1)c1ccccc1[N+](=O)[O-]`, for which the TGI is above 100 µM. The same measure, in the same setting: with `COc1cccc2c(=O)c3c(n(C)c12)OC(C(C)C)C3` (stereo not given) the figure was above 100 µM. The same measure, in the same setting: as for `COc1ccc(C2SCc3nc4ccccc4n32)cc1` (stereo not given), the figure is above 100 µM; as for `Cc1cc(C)nc(NS(=O)(=O)c2ccc(NC(=O)c3cccc4c(Nc5ccc(S(=O)(=O)Nc6nc(C)cc(C)n6)cc5)c5ccc(Cl)cc5nc34)cc2)n1`, above 100 µM. For the molecule `C[C@H]1CCC/C=C/[C@@H]2C[C@H](O)C[C@H]2[C@H](O)[C@@H](S(=O)C[C@@H](N)C(=O)O)CC(=O)O1` (stereo not given in full), the GI50 was 0.104 µM and the TGI was 17.4 µM.

Turning to `Cn1cc(-c2nonc2-c2cn(C)c3ccc(F)cc23)c2ccccc21`, the GI50 was 1.24 µM and the TGI was above 100 µM. Molecule `CCNCC(O)COc1ccc2c(c1)[n+]([O-])nc(N)[n+]2[O-]` (stereo not given) registered a TGI above 100 µM.

In the case of `O=C1/C(=C\c2ccc(Cl)cc2)CCOc2c1ccc1ccccc21`, the GI50 is 20.8 µM and the TGI worked out at 79.9 µM. With `O=C1OC(c2ccccc2)=N/C1=C\c1ccc(Cl)cc1`, the TGI was above 100 µM. In turn, `N#CSCc1nc2ccc(Cl)cc2c(-c2ccccc2)[n+]1[O-]` gave a TGI above 100 µM. In turn, `Cc1cc(C)c2c(c1)CC1(Cc3c(ccc(C)c3C)C1=O)C2=O` (stereo not given) gave a TGI above 100 µM. Turning to `COc1cccc(/C=C(\NC(C)=O)c2nc3ccc(Cl)cc3[nH]2)c1`, the TGI is above 100 µM.

For `O=[N+]([O-])c1ccc(OCc2nnc(CCCCCCCCc3nnc(COc4ccc([N+](=O)[O-])cc4)o3)o2)cc1`, the TGI was above 100 µM. Take `N#C/C(=C/NC(=S)NCc1ccccc1)C(N)=O`: the TGI was above 100 µM.

Take `COC(=O)C1(C(=O)OC)CC(=O)c2c(OC(=O)c3cccc(OC)c3C#N)ccc(OC(=O)c3cccc(OC)c3C#N)c2C1`: the TGI is above 100 µM. Same read-out and setting: as for `O=C(CC1C(=O)Nc2ccccc2S1(=O)=O)Nc1cc(Cl)ccc1Cl` (stereo not given), the figure is 60.8 µM; as for `CC(C)(C)C(=O)C(C(=O)c1ccccc1)C(=O)C(C)(C)C`, above 100 µM; as for `COc1cc(C2S/C(=C/c3ccccc3)C(=O)N2c2cccc(Cl)c2)cc(OC)c1OC` (stereo not given), above 100 µM.

For the molecule `CC(=O)OC1CC(OC2C(O)CC(OC3C(O)CC(OC4CCC5(C)C(CCC6C5CCC5(C)C(C7=CC(=O)OC7)C(O)CC65O)C4)OC3C)OC2C)OC(C)C1OC1OC(CO)C(O)C(O)C1O` (stereo not given), the TGI worked out at 1.88 µM. `O=C(O)CCN1CCN(CCC(=O)O)CCN(CCC(=O)O)CC1` had a TGI above 100 µM. On the same count and under the same terms, with `COc1ccc(-c2c(C#N)c(=O)nc(SC)n2C2OCC(OC(C)=O)C(OC(C)=O)C2OC(C)=O)cc1` (stereo not given) the figure was above 100 µM.

Molecule `CCCCCCCCCCCCCCCCCCOP1(=O)OCCO1` returned a TGI above 100 µM. Same read-out and setting: with `CC(C)(O)/C=C/C(=O)[C@](C)(O)[C@H]1[C@H](O)C[C@@]2(C)[C@@H]3CC=C4[C@@H](C=C(O)C(=O)C4(C)C)[C@]3(C)C(=O)C[C@]12C` the figure was > 10 µM and 7.9 µM. The same measure, in the same setting: with `O=C(O)COc1ccc(C(=O)/C(SS/C(C(=O)c2ccc(OCC(=O)O)c(Cl)c2Cl)=C2\C=C(c3ccc(F)cc3)SS2)=C2/C=C(c3ccc(F)cc3)SS2)c(Cl)c1Cl` the figure was above 100 µM; with `COC(=O)/C(=N/NC(N)=O)C(C(=O)C(=O)Nc1ccc(C)cc1)c1nc2ccc(C(=O)c3ccccc3)cc2[nH]c1=O` (stereo not given), above 100 µM; with `O=[As]O`, above 100 µM.

Regarding `O=C1C(N2CCOCC2)=C(Cl)C(=O)c2ncccc21`, the TGI was above 10 µM.

`Cc1nc(-c2nc(C)c(C(=O)/C=C/c3ccc([N+](=O)[O-])cc3)s2)sc1C(=O)/C=C/c1ccc([N+](=O)[O-])cc1`: the TGI was above 100 µM. Still for that read-out and setting: as for `COc1ccc(C2(O)C(S(=O)(=O)c3ccc(C)cc3)=Cc3ccc(OC)cc32)cc1` (stereo not given), the figure is above 100 µM. Consider `CCC(=O)c1c(C(F)(F)F)n([O-])c2cc(N3CCNCC3)c(F)cc2[n+]1=O`, for which the GI50 is 9.92 µM and the TGI turned out to be 22 µM. `COc1ccc2cc(C(=O)CCC(=O)O)ccc2c1`: the TGI is above 100 µM.

Turning to `CN1N=C(N)c2cn(C3OC(COP(=O)(O)O)C(O)C3O)c3ncnc1c23` (stereo not given), the TGI was 455 µM and 1650 µM and 809 µM. With `Clc1nc(Cl)c2ncn(C/C=C\COc3cccc(OC/C=C\Cn4cnc5c(Cl)nc(Cl)nc54)c3)c2n1`, the GI50 was above 100 µM and the TGI was above 100 µM. For the molecule `Cc1cc(S(=O)(=O)NC2=NCC(C)NN2)c(S)cc1Cl` (stereo not given), the TGI was above 100 µM. Turning to `O=C1C=CC=C[C@@H]2C(C3OCCO3)CC[C@H]12.[C-]#[O+].[C-]#[O+].[C-]#[O+].[Fe]` (stereo not given in full), the GI50 was above 100 µM and the TGI was above 100 µM. As to `O=C(NCCCN1CCC(N2CCCCC2)CC1)C1=Cc2cc(Br)ccc2OC1`, the GI50 was 8.58 µM and the TGI came to 22.5 µM.

Take `CS(=O)(=O)CCN(CC#N)Cc1ccc(-c2ccc3ncnc(Nc4ccc(OCc5cccc(F)c5)c(Cl)c4)c3c2)o1`: the GI50 was 1.94 µM and the TGI is above 25 µM. As for `S=c1nc2sc3c(c2c(Nc2ccccc2)[nH]1)CCCC3`, the TGI is above 100 µM. Same read-out and setting: with `CN(C(=O)Nc1ccc(Cl)c(Cl)c1)C1CCCC[C@@H]1N1CCCC1` (stereo not given in full) the figure was above 100 µM.

`COc1ccc(N2C(Cl)C(=O)C2c2c[nH]c3ccccc23)cc1` (stereo not given): the TGI is above 100 µM.

The molecule `O=[N+]([O-])c1ccccc1N=Nc1c(O)[nH]c2ccc(S(=O)(=O)O)cc12` showed a TGI above 100 µM. The molecule `C=C1c2nc3ccccc3n2C=C(c2ccc(OC)cc2)N1c1ccccc1` showed a TGI above 100 µM. Same read-out and setting: as for `O=C1C(NCCF)=C(Cl)C(=O)c2ncccc21`, the figure is 2.21 µM; as for `COc1cc(/C=C2\C[C@H]3[C@@H]4CC=C5C[C@@H](OC(C)=O)CC[C@]5(C)[C@H]4CC[C@]3(C)\C2=N\O)cc(OC)c1OC`, above 100 µM; as for `COC1=CC(=O)[C@]2(C)[C@H](C1=O)C(C)[C@H]2c1ccc(OC)cc1` (stereo not given in full), above 100 µM. Still for that read-out and setting: as for `C=CCN1C(N)=C(C#N)C(C#N)(C#N)C1CCC` (stereo not given), the figure is above 100 µM. On the same count and under the same terms, with `COC(=O)c1cc(C)n(CN(Cn2nc(C(=O)OC)cc2C)c2ccccc2)n1` the figure was above 100 µM. For the molecule `CCCN1CCN(c2ccc3nc(-c4ccc5nc(-c6ccc(C(F)(F)F)cc6)[nH]c5c4)[nH]c3c2)CC1`, the GI50 is 1.73 µM and the TGI was 3.12 µM. The matching figures for `O=C(/C=C/c1cccs1)c1ccc(Cl)cc1Cl`: 19.8 µM and 42.3 µM. With `COC(=O)[C@@]12C(=O)CCC(=O)C1C1C(=CC2C)O[C@@H]2OC3(CCCCC3)O[C@H]12` (stereo not given in full), the TGI is above 100 µM. In the case of `C/C(=C1\SC(=NCc2cccs2)NC1=O)c1ccc2ncccc2c1`, the GI50 was above 25 µM and the TGI is above 25 µM. Molecule `O=C(CC(=O)N1N=C(N2c3ccccc3Sc3ccccc32)CC1c1ccccc1)Nc1ccccc1Cl` (stereo not given) came in with a TGI above 100 µM. Take `COc1cc(-c2cc(/C=C3\C(=O)Nc4cc(Cl)ccc43)[nH]n2)cc(OC)c1OC`: the GI50 is 4.66 µM and the TGI was 93.8 µM. In turn, `OC/C=C/[C@H](OCc1ccccc1)[C@H](/C=C/CO)OCc1ccccc1` showed a TGI above 100 µM.

Molecule `CC1(C(=O)Nc2ccc3cc4ccccc4cc3c2)CC2(C)CC(C)(C1)C(O)NC2=O` (stereo not given) displayed a TGI above 100 µM. For `CC(=O)N1C(Nc2ccccc2)CCN1c1ccccc1` (stereo not given), the TGI is above 10 µM.
